This note sets out measurements from US20140219913A1 (AbbVie / Abbott, published 2014).

The chains are these.
T1: Recombinant human B7-1/CD80 Fc chimera (Cat. 140-B1-100, R&D Systems) (human, UniProt P33681 35-242)
T1 construct: extracellular domain; also called B7-1 antigen; Fc part of the bought chimera not given; not described
T1 sequence (looked up): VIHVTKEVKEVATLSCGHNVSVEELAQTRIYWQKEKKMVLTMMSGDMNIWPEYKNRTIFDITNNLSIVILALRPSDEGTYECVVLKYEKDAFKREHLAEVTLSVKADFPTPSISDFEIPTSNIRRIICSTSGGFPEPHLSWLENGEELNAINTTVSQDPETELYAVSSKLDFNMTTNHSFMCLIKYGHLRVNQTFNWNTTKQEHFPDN

B1: RAB001 (other)
VH: [about 120 residues omitted]STKGPEVQLVQSGAEVKKPGASVKVSCKASGYTFTKYWLGWVRQAPGQGLEWMGDIYPGYDYTHYNEKFKDRVTLTTDTSTSTAYMELRSLRSDDTAVYYCARSDGSSTYWGQGTLVTVSS
VL: [about 120 residues omitted]VAAPDVLMTQTPLSLPVTPGEPASISCTSSQNIVHSNGNTYLEWYLQKPGQSPQLLIYKVSNRFSGVPDRFSGSGSGTDFTLKISRVEAEDVGVYYCFQVSHVPYTFGGGTKVEIKR
notes: rDVD-Ig with CTLA4 ECD on both heavy and light chains, N-terminal of the anti-PGE2 2B5.7 variable domains; also called RAB001H; RAB001L
B2: RAB002 (other)
VH: [about 120 residues omitted]STKGPEVQLVQSGAEVKKPGASVKVSCKASGYTFTKYWLGWVRQAPGQGLEWMGDIYPGYDYTHYNEKFKDRVTLTTDTSTSTAYMELRSLRSDDTAVYYCARSDGSSTYWGQGTLVTVSS
VL: DVLMTQTPLSLPVTPGEPASISCTSSQNIVHSNGNTYLEWYLQKPGQSPQLLIYKVSNRFSGVPDRFSGSGSGTDFTLKISRVEAEDVGVYYCFQVSHVPYTFGGGTKVEIKR
notes: rDVD-Ig with CTLA4 ECD on the heavy chain only; Human IgG1 constant region with L234A/L235A (EU) and human kappa constant region; also called RAB002H; RAB002L
B3: RAB003 (other)
VH: EVQLVQSGAEVKKPGASVKVSCKASGYTFTKYWLGWVRQAPGQGLEWMGDIYPGYDYTHYNEKFKDRVTLTTDTSTSTAYMELRSLRSDDTAVYYCARSDGSSTYWGQGTLVTVSS
VL: [about 120 residues omitted]VAAPDVLMTQTPLSLPVTPGEPASISCTSSQNIVHSNGNTYLEWYLQKPGQSPQLLIYKVSNRFSGVPDRFSGSGSGTDFTLKISRVEAEDVGVYYCFQVSHVPYTFGGGTKVEIKR
notes: rDVD-Ig with CTLA4 ECD on the light chain only; Human IgG1 constant region with L234A/L235A (EU) and human kappa constant region; also called RAB003H; RAB003L

The assay deals with T1, Recombinant human B7-1/CD80 Fc chimera …. The assay can be described thus: direct bind ELISA, coated recombinant human B7-1/CD80 Fc chimera. The method, then: Enzyme Linked Immunosorbent Assays (ELISA) to screen for antibodies that bind a desired target antigen were performed as follows. High bind ELISA plates (Corning Costar #3369, Acton, Mass.) were coated with 100 μL/well of 10 μg/ml of desired target antigen (R&D Systems, Minneapolis, Minn.) or desired target antigen extra-cellular domain/FC fusion protein (R&D Systems, Minneapolis, Minn.) or monoclonal mouse anti-polyHistidine antibody (R&D Systems #MAB050, Minneapolis, Minn.) in phosphate buffered saline (10×PBS, Abbott Bioresearch Center, Media Prep#MPS-073, Worcester, Mass.) overnight at 4° C. Plates were washed four times with PBS containing 0.02% Tween 20. Plates were blocked by the addition of 300 μL/well blocking solution (non-fat dry milk powder, various retail suppliers, diluted to 2% in PBS) for ½ hour at room temperature. Plates were washed four times after blocking with PBS containing 0.02% Tween 20.
One hundred microliters of 10 ng/mL goat anti-human IgG-FC specific HRP conjugated antibody (Southern Biotech #2040-05, Birmingham, Ala.) was added to each well of the desired target antigen plate or anti-polyHistidine antibody/Histidine tagged desired target antigen plate. Alternatively, one hundred microliters of 10 ng/mL goat anti-human IgG-kappa light chain specific HRP conjugated antibody (Southern Biotech #2060-05 Birmingham, Ala.) was added to each well of the desired target antigen/FC fusion plate and incubated for 1 hour at room temperature. Plates were washed 4 times with PBS containing 0.02% Tween 20.
One hundred microliters of enhanced TMB solution (Neogen Corp. #308177, K Blue, Lexington, Ky.) was added to each well and incubated for 10 minutes at room temperature. The reaction was stopped by the addition of 50 μL 1N sulphuric acid. Plates were read spectrophotometrically at a wavelength of 450 nm
For orientation: ELISA stands for enzyme-linked immunosorbent assay.
As usually defined, the EC50 is the concentration giving half of the maximal effect. Turning to B1, the EC50 came to 17.7 nM.

Take B2: the concentration giving a half-maximal response (EC50) is 5.4 nM.

B3: the EC50 turned out to be 5.5 nM.
